Measured values taken from the supplement of paper PMC10369915.
The other results are listed elsewhere or left out. Cut-off read from the data, not from the text of the source: active = 3.2 or more and inactive = the rest. Only a few entries rise above the background.

Columns and labels:
Test in all cases: enrichment score (SH2-bound / input frequency) (ratio); bacterial display of known human phosphotyrosine sites (pTyr-Var adds point mutants) read by sequencing; higher = stronger binding; tyrosines were phosphorylated by kinases first
Details in all cases: peptide library: pTyr-Var
SHP2 C-SH2 domain E139D = target: SHP2 C-SH2 domain E139D
[1] = target: SHP2 C-SH2 domain wild-type
SHP2 N-SH2 domain L43F = target: SHP2 N-SH2 domain L43F
SHP2 N-SH2 domain T42A = target: SHP2 N-SH2 domain T42A
SHP2 N-SH2 domain T52S = target: SHP2 N-SH2 domain T52S
[2] = target: SHP2 N-SH2 domain wild-type

Measured: enrichment score
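Note: displayed peptides selected on beads carrying the immobilized SH2 domain, with library peptides lacking any tyrosine serving as negative controls.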

FSAPNCCYRCG [PPP2CA_Y265_Y265C]
inactive: SHP2 C-SH2 domain E139D 0.772 | [1] 0.96 | SHP2 N-SH2 domain L43F 0.819 | SHP2 N-SH2 domain T42A 0.797 | SHP2 N-SH2 domain T52S 0.706 | [2] 1.07

FSAPNCCFRCG [PPP2CA_Y265_Y265C_YF]
inactive: SHP2 C-SH2 domain E139D 0.913 | [1] 0.791 | SHP2 N-SH2 domain L43F 0.583 | SHP2 N-SH2 domain T42A 0.762 | SHP2 N-SH2 domain T52S 0.659 | [2] 0.69

NQILPYIKELV [PPP2R1B_Y341]
inactive: SHP2 C-SH2 domain E139D 1.21 | [1] 1.31 | SHP2 N-SH2 domain L43F 0.903 | SHP2 N-SH2 domain T42A 0.862 | SHP2 N-SH2 domain T52S 1.06 | [2] 1.53

NQILPYIEELV [PPP2R1B_Y341_K343E]
inactive: SHP2 C-SH2 domain E139D 0.845 | [1] 0.954 | SHP2 N-SH2 domain L43F 0.812 | SHP2 N-SH2 domain T42A 0.764 | SHP2 N-SH2 domain T52S 0.77 | [2] 0.828

LNAGAYSKVVQ [PPT1_Y172]
inactive: SHP2 C-SH2 domain E139D 1.09 | [1] 1.79 | SHP2 N-SH2 domain L43F 0.922 | SHP2 N-SH2 domain T42A 0.887 | SHP2 N-SH2 domain T52S 0.626 | [2] 0.9

LVQAEYWRDPI [PPT1_Y185_H187R]
inactive: SHP2 C-SH2 domain E139D 1.04 | [1] 1.04 | SHP2 N-SH2 domain L43F 0.897 | SHP2 N-SH2 domain T42A 0.878 | SHP2 N-SH2 domain T52S 0.991 | [2] 1.01

LLQAEYWHDPI [PPT1_Y185_V181L]
inactive: SHP2 C-SH2 domain E139D 1.22 | [1] 1.39 | SHP2 N-SH2 domain L43F 1.32 | SHP2 N-SH2 domain T42A 0.929 | SHP2 N-SH2 domain T52S 1.25 | [2] 1.45

LMQAEYWHDPI [PPT1_Y185_V181M]
inactive: SHP2 C-SH2 domain E139D 1.19 | [1] 1.14 | SHP2 N-SH2 domain L43F 1.1 | SHP2 N-SH2 domain T42A 0.862 | SHP2 N-SH2 domain T52S 0.829 | [2] 1.01

ETEMLYGSARR [PRC1_Y464_P468R]
inactive: SHP2 C-SH2 domain E139D 0.863 | [1] 0.705 | SHP2 N-SH2 domain L43F 0.688 | SHP2 N-SH2 domain T42A 0.794 | SHP2 N-SH2 domain T52S 0.585 | [2] 0.679

FGGTVCHSPVS [PRC1_Y511_Y511C]
inactive: SHP2 C-SH2 domain E139D 0.84 | [1] 0.871 | SHP2 N-SH2 domain L43F 0.795 | SHP2 N-SH2 domain T42A 0.725 | SHP2 N-SH2 domain T52S 0.861 | [2] 1.05

GLVFLYMEKNQ [PRELP_Y156]
inactive: SHP2 C-SH2 domain E139D 1.94 | [1] 2.22 | SHP2 N-SH2 domain L43F 2.19 | SHP2 N-SH2 domain T42A 1.89 | SHP2 N-SH2 domain T52S 2.01 | [2] 2.23

GLVFLYVEKNQ [PRELP_Y156_M157V]
inactive: SHP2 C-SH2 domain E139D 2.68 | [1] 2.16 | SHP2 N-SH2 domain L43F 2.23 | SHP2 N-SH2 domain T42A 2.03 | SHP2 N-SH2 domain T52S 2.42 | [2] 2.52

GSIQQYTYKQE [PRG4_Y1271_I1272T]
inactive: SHP2 C-SH2 domain E139D 0.74 | [1] 1.1 | SHP2 N-SH2 domain L43F 1.02 | SHP2 N-SH2 domain T42A 0.824 | SHP2 N-SH2 domain T52S 0.947 | [2] 1.16

GSIQQYTFKQE [PRG4_Y1271_I1272T_YF]
inactive: SHP2 C-SH2 domain E139D 0.931 | [1] 0.999 | SHP2 N-SH2 domain L43F 0.866 | SHP2 N-SH2 domain T42A 0.794 | SHP2 N-SH2 domain T52S 0.952 | [2] 0.752

GSIQQYIFKQE [PRG4_Y1271_YF]
inactive: SHP2 C-SH2 domain E139D 1.14 | [1] 0.65 | SHP2 N-SH2 domain L43F 1.11 | SHP2 N-SH2 domain T42A 0.676 | SHP2 N-SH2 domain T52S 0.635 | [2] 0.783

RGRKVYLEDGF [PRIM2_Y201]
inactive: SHP2 C-SH2 domain E139D 0.245 | [1] 0.269 | SHP2 N-SH2 domain L43F 0.217 | SHP2 N-SH2 domain T42A 0.222 | SHP2 N-SH2 domain T52S 0.233 | [2] 0.185

LGPSDYFGEIV [PRKAR1A_Y323_A328V]
inactive: SHP2 C-SH2 domain E139D 0.86 | [1] 0.833 | SHP2 N-SH2 domain L43F 0.868 | SHP2 N-SH2 domain T42A 0.675 | SHP2 N-SH2 domain T52S 0.714 | [2] 0.855

LGPSDYFGETA [PRKAR1A_Y323_I327T]
inactive: SHP2 C-SH2 domain E139D 0.527 | [1] 0.539 | SHP2 N-SH2 domain L43F 0.745 | SHP2 N-SH2 domain T42A 0.447 | SHP2 N-SH2 domain T52S 0.581 | [2] 0.652

RNIQQYNSFVS [PRKAR1A_Y373]
inactive: SHP2 C-SH2 domain E139D 0.712 | [1] 0.723 | SHP2 N-SH2 domain L43F 0.876 | SHP2 N-SH2 domain T42A 0.672 | SHP2 N-SH2 domain T52S 0.77 | [2] 0.741

KGRGEYFAIKA [PRKCD_Y374]
inactive: SHP2 C-SH2 domain E139D 1.39 | [1] 1.18 | SHP2 N-SH2 domain L43F 1.57 | SHP2 N-SH2 domain T42A 1.01 | SHP2 N-SH2 domain T52S 1.26 | [2] 1.38

CGSLLYGLVHQ [PRKCG_Y122]
inactive: SHP2 C-SH2 domain E139D 1.15 | [1] 1.09 | SHP2 N-SH2 domain L43F 1.1 | SHP2 N-SH2 domain T42A 1.11 | SHP2 N-SH2 domain T52S 1.07 | [2] 0.976

YPLELYERVRM [PRKCG_Y312]
inactive: SHP2 C-SH2 domain E139D 0.921 | [1] 0.92 | SHP2 N-SH2 domain L43F 1.09 | SHP2 N-SH2 domain T42A 0.845 | SHP2 N-SH2 domain T52S 1.08 | [2] 1.14

FPLELYERVRI [PRKCG_Y312_M317I_YF]
inactive: SHP2 C-SH2 domain E139D 1 | [1] 0.98 | SHP2 N-SH2 domain L43F 0.941 | SHP2 N-SH2 domain T42A 1.13 | SHP2 N-SH2 domain T52S 0.956 | [2] 0.834

CGTPDYIAPEI [PRKCG_Y521]
inactive: SHP2 C-SH2 domain E139D 0.694 | [1] 0.615 | SHP2 N-SH2 domain L43F 0.639 | SHP2 N-SH2 domain T42A 0.511 | SHP2 N-SH2 domain T52S 0.654 | [2] 0.945

CGTPDYIDPEI [PRKCG_Y521_A523D]
inactive: SHP2 C-SH2 domain E139D 0.79 | [1] 0.947 | SHP2 N-SH2 domain L43F 0.849 | SHP2 N-SH2 domain T42A 0.72 | SHP2 N-SH2 domain T52S 0.807 | [2] 1.01

CGTPDYIAREI [PRKCG_Y521_P524R]
inactive: SHP2 C-SH2 domain E139D 0.741 | [1] 1.03 | SHP2 N-SH2 domain L43F 0.788 | SHP2 N-SH2 domain T42A 0.731 | SHP2 N-SH2 domain T52S 0.721 | [2] 1.17

PEIIAYQPYGK [PRKCG_Y529]
inactive: SHP2 C-SH2 domain E139D 0.68 | [1] 0.698 | SHP2 N-SH2 domain L43F 0.802 | SHP2 N-SH2 domain T42A 0.831 | SHP2 N-SH2 domain T52S 0.639 | [2] 0.492

REIIAYQPFGK [PRKCG_Y529_P524R_YF]
inactive: SHP2 C-SH2 domain E139D 1.16 | [1] 0.891 | SHP2 N-SH2 domain L43F 0.732 | SHP2 N-SH2 domain T42A 0.534 | SHP2 N-SH2 domain T52S 0.847 | [2] 1.04

LRGEDCGFSVD [PRKCI_Y430_Y430C]
inactive: SHP2 C-SH2 domain E139D 0.938 | [1] 0.991 | SHP2 N-SH2 domain L43F 0.942 | SHP2 N-SH2 domain T42A 0.77 | SHP2 N-SH2 domain T52S 0.927 | [2] 0.996

RSIGEYDVLRG [PRKDC_Y2936]
inactive: SHP2 C-SH2 domain E139D 0.807 | [1] 0.763 | SHP2 N-SH2 domain L43F 0.913 | SHP2 N-SH2 domain T42A 0.652 | SHP2 N-SH2 domain T52S 0.638 | [2] 0.774

RSIGEYDVLRA [PRKDC_Y2936_G2941A]
inactive: SHP2 C-SH2 domain E139D 0.655 | [1] 0.858 | SHP2 N-SH2 domain L43F 0.671 | SHP2 N-SH2 domain T42A 0.641 | SHP2 N-SH2 domain T52S 0.671 | [2] 1.2

FEPWVYSFSYE [PRKDC_Y647]
inactive: SHP2 C-SH2 domain E139D 1.03 | [1] 1.18 | SHP2 N-SH2 domain L43F 1.09 | SHP2 N-SH2 domain T42A 1.16 | SHP2 N-SH2 domain T52S 1.04 | [2] 1.4

FEPWVYSLSFE [PRKDC_Y647_F649L_YF]
inactive: SHP2 C-SH2 domain E139D 0.963 | [1] 0.753 | SHP2 N-SH2 domain L43F 0.746 | SHP2 N-SH2 domain T42A 0.817 | SHP2 N-SH2 domain T52S 0.99 | [2] 0.896

AKKIKYFEGVS [PRKDC_Y682]
inactive: SHP2 C-SH2 domain E139D 0.974 | [1] 0.863 | SHP2 N-SH2 domain L43F 0.912 | SHP2 N-SH2 domain T42A 0.605 | SHP2 N-SH2 domain T52S 0.616 | [2] 0.951

FENGEYIVRQG [PRKG1_Y247_I249V_YF]
inactive: SHP2 C-SH2 domain E139D 0.754 | [1] 0.633 | SHP2 N-SH2 domain L43F 0.909 | SHP2 N-SH2 domain T42A 0.589 | SHP2 N-SH2 domain T52S 0.617 | [2] 0.724

ECKEAYHEGEC [PRKN_Y372]
inactive: SHP2 C-SH2 domain E139D 0.305 | [1] 0.373 | SHP2 N-SH2 domain L43F 0.352 | SHP2 N-SH2 domain T42A 0.316 | SHP2 N-SH2 domain T52S 0.562 | [2] 0.572

LRWREYQRQDY [PRKRIP1_Y90_R87W]
inactive: SHP2 C-SH2 domain E139D 2.31 | [1] 1.89 | SHP2 N-SH2 domain L43F 1.82 | SHP2 N-SH2 domain T42A 1.6 | SHP2 N-SH2 domain T52S 2.35 | [2] 1.59
